Source: PubChem BioAssay AID1346428 (National Center for Advancing Translational Sciences (NCATS), 2018)
The campaign covered roughly 48,000 compounds. About 1,200 (2.5%) were called active. Roughly 2% stayed inconclusive and do not appear here.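 The calls were made as follows: active = activation of at least 60% and not above a set upper limit (about 1 call in 100 departs from these limits); inconclusive = activation of 40% to 60%, or above that upper limit; inactive = activation under 40%.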 This is one part of the list.

molecular target: Probable G-protein coupled receptor 32 (Homo sapiens) (UniProt O75388); assay: qHTS for Agonists of Human Resolvin D1 Receptor DRV1; details: CHO-K1 GPR32 beta-arrestin PathHunter luminescence, 90 min; at 76.9 µM; stronger effect = higher value; zero percent set by DMSO-only wells; also: 0% is about no effect
Procedure, shortened: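 Readings come from a cell-based beta-arrestin complementation format: CHO-K1 GPR32 stable cells (2,500/well) treated 90 min with compounds, then beta-Gal substrate added for 1 h before chemiluminescence imaging.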

Sequence of UniProt O75388 (O75388 whole entry, looked up): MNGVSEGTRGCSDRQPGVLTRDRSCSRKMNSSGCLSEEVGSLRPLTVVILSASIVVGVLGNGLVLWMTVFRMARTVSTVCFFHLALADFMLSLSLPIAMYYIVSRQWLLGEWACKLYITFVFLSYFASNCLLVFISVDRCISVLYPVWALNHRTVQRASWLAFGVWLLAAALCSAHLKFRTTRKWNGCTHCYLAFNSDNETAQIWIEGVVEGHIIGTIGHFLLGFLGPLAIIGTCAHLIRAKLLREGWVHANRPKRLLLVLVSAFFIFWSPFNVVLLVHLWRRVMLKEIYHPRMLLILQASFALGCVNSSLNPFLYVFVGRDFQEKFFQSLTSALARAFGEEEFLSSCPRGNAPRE

SMILES	activation
Cc1ccc(N2C(=O)CS(=O)(=O)C23C(=O)N(Cc2ccccc2C)c2ccccc23)cc1Cl (centres undefined)	inactive: 17.2%
COc1cc(OC)cc(C(=O)Nc2ccc(-c3nc4ccccc4s3)c(C)c2)c1	inactive: 11%
CCOC(=O)c1c(NC(=O)COc2ccc(CC)cc2)sc2c1CCCC2	inactive: -19.1%
COc1ccc(-n2c(=O)[nH]c3cc(C(=O)NCCc4ccc(Cl)cc4)ccc3c2=O)cc1OC	inactive: 32.5%
CCC(Sc1ncccc1C(=O)Oc1ccccc1Cl)C(=O)Nc1ccccc1OC (centres undefined)	inactive: -30.5%
COc1ccc(NC(=O)C(NC(=O)C2CCC(C)CC2)C(C)C)cc1 (centres undefined)	inactive: -2.79%
Cc1nn(C)c2c1c(C(F)(F)F)cc(=O)n2C(C)C(=O)NCCC(C)C (centres undefined)	inactive: -1.04%
Cc1ccc2c(=O)c(C(=O)c3ccccc3)cn(CC(=O)Nc3ccc(C)c(Cl)c3)c2n1	inactive: 5.8%
CCCNC(=O)c1ccc2c(c1)nc(C)n2-c1cccc(C)c1	inactive: -5.62%
CC(=O)c1cccc(-n2c(=O)c3c4c(sc3n(CC(=O)Nc3ccccc3F)c2=O)CN(C(C)=O)CC4)c1	inactive: 7.74%
COc1cc(NC(=O)c2ccc3c(Cl)c4c(nc3c2)CCC4)cc(OC)c1OC	inactive: 13.3%
O=C(COc1ccc([N+](=O)[O-])cc1)N1CCC(c2nc3ccccc3s2)CC1	inactive: 31.5%
CCOC(=O)Cn1c(=O)c2c(nc(N3CCOCC3)n2Cc2ccccc2)n(C)c1=O	inactive: -13.4%
CC(C)(CC(=O)OCC(=O)Nc1ccccc1F)CC1=NS(=O)(=O)c2ccccc2N1	active: 112%
CCOc1ccc(N(C(C)C(=O)NCCSc2ccc(Cl)cc2)S(C)(=O)=O)cc1 (centres undefined)	inactive: 40%
CCc1ccc(CNC(=O)C2CCN(c3nnc(C)c4c(C)n(-c5ccc(C)cc5)nc34)CC2)cc1	inactive: -16.7%
COc1cc(-c2ccc(=O)[nH]n2)ccc1OC(F)F	inactive: 9.23%
Cc1cc(NC(=O)c2cc(-c3ccc(Br)cc3)on2)nn1Cc1ccc(Cl)cc1	inactive: -0.293%
O=C(Nc1nnc(S(=O)(=O)N2CCCCCC2)s1)c1ccccc1F	inactive: 49.7%
CCOC(=O)C1CCN(c2cc(C)nc3c(-c4ccccc4OC)c(C)nn23)CC1	inactive: -14.8%
O=C(Cn1nc(-c2ccccc2)c2cnc3ccc(F)cc3c21)NC1CCCC1	inactive: -18.6%
CCOc1cccc2sc(N3CCN(C(=O)C(C)(C)C)CC3)nc12	inactive: -14.2%
Cc1nc(N2CCOCC2)c2c(C(=O)N(C)Cc3ccccc3)c(C)oc2n1	inactive: -11.7%
Cc1cc(NC(=O)CSc2nc3c([nH]c4ccccc43)c(=O)n2-c2ccccc2F)no1	inactive: -91.5%
CCCCNc1nc(Oc2ccc(=O)n(-c3ccccc3)n2)nc(N(CC)CC)n1	inactive: -9.28%
Cc1ccc(-c2nnc(SCC(=O)N3CCCc4ccccc43)o2)cc1	inactive: -5.51%
COc1cccc(NC(=O)Cn2c(=O)n(Cc3ccccc3)c(=O)c3c4c(sc32)CN(C(C)=O)CC4)c1	inactive: -13.4%

SMILES	activation
COc1ccc(-c2cc(C(F)(F)F)nc(SCC(=O)NCc3ccc(F)cc3)n2)cc1	inactive: -3.77%
COc1ccc(-n2cc3c(c2-c2cccc(Br)c2)c(=O)n(C)c(=O)n3C)cc1OC	inactive: -8.77%
CCCCc1ccc(NC(=O)Cn2cnc3c2c(=O)n(C)c(=O)n3C)cc1	inactive: -12.9%
COC(=O)c1ccccc1NC(=O)c1nc(SCc2ccccc2C)ncc1Cl	inactive: 4.15%
Cc1cc(C)cc(C(=O)Nc2ccc(-c3cn4cccnc4n3)cc2)c1	active: 103%
Cc1cc(=O)[nH]c2nnc(SCc3cccc(F)c3)n12	inactive: 15%
CCOC(=O)NNc1nncc2ccccc12	inactive: 2.88%
Cc1ccc(Cn2cc(CCC(=O)NC3CCCCC3)c3ccccc32)cc1	inactive: -18.7%
O=c1c2oc3ccccc3c2n(Cc2ccccc2F)c(=O)n1Cc1ccco1	inactive: -6.63%
Cc1ccccc1NC(=O)Nc1nnc(N(C)Cc2ccccc2)s1	inactive: -12.6%
Cc1cccc(N2CCN(C(=O)Nc3ccc(F)cc3)CC2C)c1 (centres undefined)	active: 63.3%
Cc1c(Cl)cccc1N1CC(c2nc3ccccc3n2Cc2ccccc2F)CC1=O (centres undefined)	inactive: 39.1%
Oc1ccccc1-c1nc(/C=C/c2ccc(F)cc2)no1	inactive: 10.4%
COc1ccccc1NC(=O)CN1C(=O)C(c2ccc(F)cc2)=NC1(C)C	inactive: -16%
COc1ccc(S(=O)(=O)NC2(C(F)(F)F)NC(=O)N(CCc3ccccc3)C2=O)cc1 (centres undefined)	inactive: 7.71%
CCCCCSc1nnc2c(n1)OC(c1ccc(C)s1)N(C(C)=O)c1ccccc1-2 (centres undefined)	inactive: -35.3%
CCS(=O)(=O)c1c(Nc2ccc(F)c(Cl)c2)sc(C(=O)c2ccccc2)c1N	inactive: -35.6%
Cc1cccc(NC(=O)Cn2c(=O)n(Cc3ccc4c(c3)OCO4)c(=O)c3ccccc32)c1	inactive: -12.8%
Cc1ccc(N2CCN(C(=O)c3nn(C)c4c3CS(=O)(=O)c3ccccc3-4)CC2C)cc1 (centres undefined)	inactive: 13.9%
CCOc1ccc(-c2ccc(NS(=O)(=O)c3cc(C)ccc3OC)cc2)nn1	inactive: -13.7%
CCOc1ccc(-n2c(=O)c3c4c(sc3n(Cc3cccc(Cl)c3)c2=O)CCCC4)cc1	inactive: -0.0672%
Cc1ccc(NC(=O)Cn2c(=O)n(-c3ccc(CC(=O)NCC4CCCO4)cc3)c(=O)c3ccccc32)cc1 (centres undefined)	inactive: 5.05%
CC1=C(c2ccc(C)c(C)c2)S(=O)(=O)N=C1N1CCN(c2cccc(C(F)(F)F)c2)CC1	inactive: -5.2%
CCCCN1CC(c2nc3ccccc3n2CCCCOc2c(C)cccc2C)CC1=O (centres undefined)	active: 71.6%
O=C(NCC(c1ccc2c(c1)OCO2)N1CCOCC1)c1ccc(F)cc1 (centres undefined)	inactive: -17.1%
Cc1ccc(/C=C(\C#N)c2nc(-c3cc4c(ccc5ccccc54)oc3=O)cs2)cc1	inactive: 1.17%
CCCC(=O)N(c1ccc2oc(-c3ccccc3)c(C(=O)OCC)c2c1)S(=O)(=O)c1ccc(C)cc1	inactive: -32%
